# Data taken from the supplement of paper PMC10037445.
# “And” between values parts separate entries of the source, which are not always exact repeats. Equal values may be shown once. ± gives the standard deviation of the averaged measurements. Over roughly 2,900 compounds, “IRF Lucia reporter activity, fold change vs agonist alone” has its median near 0.9; the highest 2% begin near 2.8. Some of the results follow.
# Legend:
# RAW-Dual [1] = experiment: IRF Lucia reporter activity, fold change vs agonist alone; cytotoxicity flag (confluency mask): cytotoxic (confluency <70% of control); higher = enhanced IRF activity
# In short: (§1)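 RAW-Dual macrophages (50,000 cells/well in DMEM, 384-well plates) received 50 nL of library stock by pin tool, then a PRR agonist 1 h later, and were kept at 37 °C, 5% CO2. After 20 hours, supernatant was read for IRF by QuantiLuc luminescence and for NF-κB by QuantiBlue absorbance at 620 nm. Reporter activity is fold change over agonist-alone wells. Cytotoxic wells had IncuCyte confluency below 70% of agonist controls in both mask sets.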
# RAW-Dual [2] = experiment: IRF Lucia reporter activity, fold change vs agonist alone; higher = enhanced IRF activity; details: agonist: MPLA (TLR4) […]
# In short: as §1
# RAW-Dual [3] = experiment: IRF Lucia reporter activity, fold change vs agonist alone; cytotoxicity flag (confluency mask): not cytotoxic; higher = enhanced IRF activity
# In short: as §1
# [4] = agonist: 3'3'-cGAMP (STING) 10 ug/mL
# [5] = library stock concentration (final ~1000-fold dilution): 10 mM, cytotoxicity flag (confluency mask): cytotoxic (confluency <70% of control)
# [6] = library stock concentration (final ~1000-fold dilution): 10 mM, cytotoxicity flag (confluency mask): not cytotoxic
compound,measurement,setting,value
Nc1ccccc1NC(=O)c1ccc(CNc2nccc(-c3cccnc3)n2)cc1 (library stock concentration (final ~1000-fold dilution): 10 mM),IRF Lucia reporter activity,RAW-Dual [1]; [4],0.0258
same,IRF Lucia reporter activity,RAW-Dual [1]; agonist: LPS (TLR4) 0.1 ug/mL,0.143
Nc1ccccc1NC(=O)c1ccc(CNc2nccc(-c3cccnc3)n2)cc1,IRF Lucia reporter activity,RAW-Dual [2]; [5],0.145
Cc1ccc(S(=O)(=O)/C=C/C#N)cc1 (library stock concentration (final ~1000-fold dilution): 10 mM),IRF Lucia reporter activity,RAW-Dual [1]; [4],0.0131 and 0.0117
same,IRF Lucia reporter activity,RAW-Dual [1]; agonist: LPS (TLR4) 0.1 ug/mL,0.0174 and 0.0105
Cc1ccc(S(=O)(=O)/C=C/C#N)cc1,IRF Lucia reporter activity,RAW-Dual [2]; [5],0.507 ± 0.69
Cc1cccn2c(=O)c(-c3nnn[nH]3)cnc12 (library stock concentration (final ~1000-fold dilution): 10 mM water),IRF Lucia reporter activity,RAW-Dual [3]; [4],1.1
same,IRF Lucia reporter activity,RAW-Dual [3]; agonist: LPS (TLR4) 0.1 ug/mL,0.916
Cc1cccn2c(=O)c(-c3nnn[nH]3)cnc12,IRF Lucia reporter activity,"RAW-Dual [2]; library stock concentration (final ~1000-fold dilution): 10 mM water, cytotoxicity flag (confluency mask): not cytotoxic",1.29
CCOCCn1c(N2CCCN(C)CC2)nc2ccccc21 (library stock concentration (final ~1000-fold dilution): 10 mM),IRF Lucia reporter activity,RAW-Dual [3]; [4],1.05
same,IRF Lucia reporter activity,RAW-Dual [3]; agonist: LPS (TLR4) 0.1 ug/mL,0.888
CCOCCn1c(N2CCCN(C)CC2)nc2ccccc21,IRF Lucia reporter activity,RAW-Dual [2]; [6],1.13
CCC(=O)OC1CC(=O)OC(C)C/C=C/C=C/C(O)C(C)CC(CC=O)C(OC2OC(C)C(OC3CC(C)(O)C(OC(=O)CC)C(C)O3)C(N(C)C)C2O)C1OC (configuration not stated) (library stock concentration (final ~1000-fold dilution): 10 mM),IRF Lucia reporter activity,RAW-Dual [3]; [4],1.05
same,IRF Lucia reporter activity,RAW-Dual [3]; agonist: LPS (TLR4) 0.1 ug/mL,0.944
CCC(=O)OC1CC(=O)OC(C)C/C=C/C=C/C(O)C(C)CC(CC=O)C(OC2OC(C)C(OC3CC(C)(O)C(OC(=O)CC)C(C)O3)C(N(C)C)C2O)C1OC (configuration not stated),IRF Lucia reporter activity,RAW-Dual [2]; [6],1.09
CCCC(=O)Nc1cccc(NC(=O)c2ccccc2Br)c1,IRF Lucia reporter activity,RAW-Dual [2]; [6],0.996
CCCC(=O)Nc1cccc(NC(=O)c2ccccc2Br)c1 (library stock concentration (final ~1000-fold dilution): 10 mM),IRF Lucia reporter activity,RAW-Dual [3]; [4],1.01
same,IRF Lucia reporter activity,RAW-Dual [3]; agonist: LPS (TLR4) 0.1 ug/mL,0.907
O=C(O)c1ccc(O)c2ncccc12 (library stock concentration (final ~1000-fold dilution): 10 mM),IRF Lucia reporter activity,RAW-Dual [3]; [4],0.875
same,IRF Lucia reporter activity,RAW-Dual [3]; agonist: LPS (TLR4) 0.1 ug/mL,1.09
O=C(O)c1ccc(O)c2ncccc12,IRF Lucia reporter activity,RAW-Dual [2]; [6],1.04
COc1cc2ncnc(Nc3ccc(O)c(Br)c3)c2cc1OC,IRF Lucia reporter activity,RAW-Dual [2]; [6],0.438
COc1cc2ncnc(Nc3ccc(O)c(Br)c3)c2cc1OC (library stock concentration (final ~1000-fold dilution): 10 mM),IRF Lucia reporter activity,RAW-Dual [3]; [4],0.128
same,IRF Lucia reporter activity,RAW-Dual [3]; agonist: LPS (TLR4) 0.1 ug/mL,0.342
CNC(=O)C(Cc1ccccc1)NC(=O)C(CC(C)C)C(CSc1cccs1)C(=O)NO (configuration not stated),IRF Lucia reporter activity,RAW-Dual [2]; [6],1.04
CNC(=O)C(Cc1ccccc1)NC(=O)C(CC(C)C)C(CSc1cccs1)C(=O)NO (configuration not stated) (library stock concentration (final ~1000-fold dilution): 10 mM),IRF Lucia reporter activity,RAW-Dual [3]; [4],0.621
same,IRF Lucia reporter activity,RAW-Dual [3]; agonist: LPS (TLR4) 0.1 ug/mL,1.08
C=C1C(=O)OC2C1CC/C(C)=C/CCC1(C)OC21 (configuration not stated),IRF Lucia reporter activity,RAW-Dual [2]; [5],0.0277
same,IRF Lucia reporter activity,RAW-Dual [2]; [6],0.747
C=C1C(=O)OC2C1CC/C(C)=C/CCC1(C)OC21 (configuration not stated) (library stock concentration (final ~1000-fold dilution): 10 mM),IRF Lucia reporter activity,RAW-Dual [3]; [4],0.0893
same,IRF Lucia reporter activity,RAW-Dual [3]; agonist: LPS (TLR4) 0.1 ug/mL,0.0169
same,IRF Lucia reporter activity,RAW-Dual [1]; [4],0.036
same,IRF Lucia reporter activity,RAW-Dual [1]; agonist: LPS (TLR4) 0.1 ug/mL,0.0142
Oc1cc(O)c2c(c1)OC(c1ccc(O)c(O)c1)C(O)C2 (configuration not stated) (library stock concentration (final ~1000-fold dilution): 10 mM),IRF Lucia reporter activity,RAW-Dual [3]; [4],0.998
same,IRF Lucia reporter activity,RAW-Dual [3]; agonist: LPS (TLR4) 0.1 ug/mL,1.32
Oc1cc(O)c2c(c1)OC(c1ccc(O)c(O)c1)C(O)C2 (configuration not stated),IRF Lucia reporter activity,RAW-Dual [2]; [6],1.02
COc1cc(-c2cc(-c3cccc(O)c3)cnc2N)cc(OC)c1OC,IRF Lucia reporter activity,RAW-Dual [2]; [6],0.416
COc1cc(-c2cc(-c3cccc(O)c3)cnc2N)cc(OC)c1OC (library stock concentration (final ~1000-fold dilution): 10 mM),IRF Lucia reporter activity,RAW-Dual [3]; [4],0.109
same,IRF Lucia reporter activity,RAW-Dual [3]; agonist: LPS (TLR4) 0.1 ug/mL,0.467
O=c1[nH]c(=S)[nH]c2nc(-c3ccccc3)c(-c3ccccc3)nc12 (library stock concentration (final ~1000-fold dilution): 10 mM),IRF Lucia reporter activity,RAW-Dual [3]; [4],0.875
same,IRF Lucia reporter activity,RAW-Dual [3]; agonist: LPS (TLR4) 0.1 ug/mL,0.934
O=C(NCC(O)CN1CCc2ccccc2C1)c1cc(NC2COC2)ncn1 (configuration not stated) (library stock concentration (final ~1000-fold dilution): 10 mM),IRF Lucia reporter activity,RAW-Dual [3]; [4],1.07
same,IRF Lucia reporter activity,RAW-Dual [3]; agonist: LPS (TLR4) 0.1 ug/mL,1.2
CC12CCCN1CC1=NNC(=O)c3cc(F)cc4[nH]c2c1c34 (configuration not stated) (library stock concentration (final ~1000-fold dilution): 10 mM),IRF Lucia reporter activity,RAW-Dual [3]; [4],0.404
same,IRF Lucia reporter activity,RAW-Dual [3]; agonist: LPS (TLR4) 0.1 ug/mL,0.134
COc1cc2c(c(OC)c1OC)-c1c(cc3c(c1OC)OCO3)C[C@H](C)[C@](C)(O)[C@H]2OC(=O)c1ccccc1 (library stock concentration (final ~1000-fold dilution): 10 mM),IRF Lucia reporter activity,RAW-Dual [3]; [4],0.947
same,IRF Lucia reporter activity,RAW-Dual [3]; agonist: LPS (TLR4) 0.1 ug/mL,1.22
